For 20 variants, self-cleavage results are on record in the RNAGym collection of RNA variant scans (doi:10.7554/elife.90254).

The source gives no read counts; variants with many changes may rest on few reads.

B1: LINE1-full (parent)
chain: UACGUAGGUGGUUUUCCCCUGAUAGUGCUAAGGGGGCCUGGAAGUUUGGACUGGGCAGAGCUCAACACAGCGUGGCAAAGUGGCUGUGGCUAGACUGCCUCUCUGGAUUCCUCGUCACUCAGCAGGGCAUCUCUGAGAGAAAUGCC

Variants of B1 are the subject of this data set. The data set is described as follows: self-cleavage, relative activity (ratio to wild type); higher = more cleavage; in vitro, sequencing; the parent is a self-cleaving ribozyme.
For the variant UACGUAGGUGGUUUUCCCCUGAUAGUGCUAAGGGGGCCUGGAAGUUUGGACUGGGCUGAGCUCAACACAGCGUGGCAAAGUGGCCGUGGCUAGACUGCCUCUCCGGUUUCCUCGUCACUCAGCAGGGCAUCUCUGAGAGAAAUGCC [A57U U85C U104C A107U], the self-cleavage was 0.
On to UACGUAGGUGGUUUUCCCCUGAUAGUGCUAAGGGGGCCUGGAAGUUUGGACUGGGCUGAGCCCAACACAGCGUGGCAAAGUGGCUGUGGCUAGACUGCCUCACUGGAUUCCUCGUCACUCAGCAGGGCAUCUCUGAGAGAAAUGCC [A57U U62C U102A], for which the self-cleavage came out at 0.09.
For UACGUAGGUGGUUUUCCCCUGAUAGUGCUAAGGGGGCCUGGAAGUUUGGACUGGGCAUAGCCCAACACAGCGUGGCAAAGUGGCUGUGGCUAGACUGCCUCUCUGGAUUCCUCGUCACUCAGCGGGGCAUCCCUGAGAGAAAUGCC [G58U U62C A124G U132C], the self-cleavage amounted to 0.03.
For the variant UACGUAGGUGGUUUUCCCCUGAUAGUGCUAAGGGGGCCUGGAAGUUUGGACUGGGCAAAGCUCAACACAGCGUGGCAAAGUGGCUGAGGCUAGACUGCCUCUCUGGAUUCCUCGUCACUCAGCAGGGCAUCUCUGAGAGAAAUGUC [G58A U87A C145U], the self-cleavage turned out to be 0.05.
As to UACGUAGGUGGUUUUCCCCUGAUAGUGCUAAGGGGGCCUGGAAGUUUGGACUGGGCUGAGCUCAACACAGCGUGGCAAAGUGGCAGUGGCUAGACUGCCUCUCUGGGUUCCUCGUCACUCAGCAGGGCAUCUCUGAGAGAAAUGCC [A57U U85A A107G], the self-cleavage worked out at 0.03.
As to UACGUAGGUGGUUUUCCCCUGAUAGUGCUAAGGGGGCCUGGAAGUUUGGACUGGGCUGAGCUCAACACAGCGUGGCAAAGUGGCUGUGGCAAGACUGCCUCGCUAGAUUCCUUGUCACUCAGCAGGGCAUCUCUGAGAGAAAUGCC [A57U U91A U102G G105A C113U], the self-cleavage is 0.02.
The result for UACGUAGGUGGUUUUCCCCUGAUAGUGCUAAGGGGGCCUGGAAGUUUGGACUGGGCUGAGCUCAACACAGCGAGGCAAAGUGGCUGUGGCUAGACUGCCUCUCUGGAUUCCUCGUCACUCAGCUGGGCACCUCUGAGAGAAAUGCC [A57U U73A A124U U130C] reads 0.08; that for UACGUAGGUGGUUUUCCCCUGAUAGUGCUAAGGGGGCCUGGAAGUUUGGACUGGGCUGAGCUCAACACAGCGAGGCAAAGUGGCUGUGGCUAGGCUGCCUCUCUGGAUUCCUCGUCACUCAGCAGGGCAUCUCUGAGAGAAAUGCC [A57U U73A A94G], 0.
The same measure for UACGUAGGUGGUUUUCCCCUGAUAGUGCUAAGGGGGCCUGGAAGUUUGGACUGGGCAUAGCUCAACACGGCGUGGCAAAGUGGCUAUGGCUAGACUGCCUCUCUGGACUCCUCGUCACUCAGCAGGGCAUCUCUGAGAGAAAUGCC [G58U A69G G86A U108C]: 0.03; for UACGUAGGUGGUUUUCCCCUGAUAGUGCUAAGGGGGCCUGGAAGUUUGGACUGGGCUGAGCCCGACACAGCAUGGCAACGUGGCUGUGGCUAGACUGCCUCUCUGGAUUCCUCGUCACUCUGCAGGGCAUCUCUGAGAGAAAUGCC [A57U U62C A64G G72A A79C A121U]: 0.02.
The result for UACGUAGGUGGUUUUCCCCUGAUAGUGCUAAGGGGGCCUGGAAGUUUGGACUGGGCUGAGCUCAACACAGCGCGGCAAAGUGGCUGUGGCUAGACUGCCUCACUGGAUUCCUCGUCUCUCAGCAGGGCAUCUCUGAGAGAAAUGCC [A57U U73C U102A A117U] reads 0.2; that for UACGUAGGUGGUUUUCCCCUGAUAGUGCUAAGGGGGCCUGGAAGUUUGGACUGGGCUGAGCUCAACACAGCGUGGCAAAGUGGCUGUGGCUAGACUGCCUCACUGGAUUCCUCGUCACUCAGCAGGGCGUCUCUGAGAGAAGUGCC [A57U U102A A129G A142G], 0.08.
Take UACGUAGGUGGUUUUCCCCUGAUAGUGCUAAGGGGGCCUGGAAGUUUGGACUGGGCAAAGCUCAACACAGCGUGGCUAAGUGGCUGUGGCUAGACUGCCUCUCUGGAUUCCUCGUCACUCAGCAGGGCAUCUCUGAGAGAAGUGCC [G58A A77U A142G]: the self-cleavage came out at 0.
On to UACGUAGGUGGUUUUCCCCUGAUAGUGCUAAGGGGGCCUGGAAGUUUGGACUGGGCUGAGCUCAACACAGCGUGGCAAAGUGGCUGUGGCUAGACUGCCUCUCUGGAUUCCCCGUCACUCAGCAGGGCAUCUCUGUGAGAAAUGCC [A57U U112C A136U], for which the self-cleavage was found to be 0.13.
The same measure for UACGUAGGUGGUUUUCCCCUGAUAGUGCUAAGGGGGCCUGGAAGUUUGGACUGGGCUGAGCUCAACACAGCGUGGCAAAGUGGCUGUGGCUAGACUGCCUCUCCGGAUUCCUCGUCACUCAGCAUGGCAUCUCUGAGAGAAAUGCC [A57U U104C G125U]: 0.1; for UACGUAGGUGGUUUUCCCCUGAUAGUGCUAAGGGGGCCUGGAAGUUUGGACUGGGCUGAGCUCAACACAGCGUGGCAAAGUGGCUGUGGCUAGACUACCUCUCUGGAUUCCUCGUCACUCAGCUGGGCAUCUCUGUGAGAAAUGCC [A57U G97A A124U A136U]: 0.04.
Take UACGUAGGUGGUUUUCCCCUGAUAGUGCUAAGGGGGCCUGGAAGUUUGGACUGGGCUGAGCUCAACACAGCGUGGCAAAGUGGCAGUGGCUAGACUGCCUCUCUGGAUUCCUCGUCACUCAGCAGGGCGUCUCUGAGAGAAAUGCC [A57U U85A A129G]: the self-cleavage stood at 0.
As to UACGUAGGUGGUUUUCCCCUGAUAGUGCUAAGGGGGCCUGGAAGUUUGGACUGGGCAAAGCUCAACACAGCGUGGCAAAGUGGCUGUGGCUAGACUGCCUCUCUGGACCCCUCGUCACUCAGCAGGGCAUCUCUGAGAGAAAUGCC [G58A U108C U109C], the self-cleavage was determined as 0.06.
The result for UACGUAGGUGGUUUUCCCCUGAUAGUGCUAAGGGGGCCUGGAAGUUUGGACUGGGCAAAGCUCAACACAGCGUGGCAAAGCGGCUGUGGCUAGACUGCCUCUCUGGAUUCCUCGUCACUCAGCGGGGCAUCUCUGAGAGAAAUGCC [G58A U81C A124G] reads 0.
With UACGUAGGUGGUUUUCCCCUGAUAGUGCUAAGGGGGCCUGGAAGUUUGGACUGGGCAAAGCUCAACACAGCGUGGCAGAGUGGCUGUGGCUAGACUGCCUCUCUGGAUUCCUCGUCACCCAGCAGGGCAUCUCUGAGAGAAAUGCC [G58A A78G U119C], the self-cleavage was 0.
